Substitutions are numbered along the chain they refer to.

The target in series [1] is T1, HER3 (Homo sapiens, UniProt P21860).
T1 construct: human Fc (huFc)
Nature of the series: ELISA binding affinity after repeated freeze-thaw. The method, then:
(§1) ELISA assay: human HER2-ex-huFc, human HER3-huFc, and human EGFR-his were diluted to 2 μg/mL and 50 μL/well in a 96-well plate and incubated at 4° C. overnight. The plate was washed with 0.5×PBST, then incubated with 100 μL of a blocking buffer (PBS+3% BSA) at 37° C. for 2 h, and washed with 0.5×PBST. The 3F8 antibody was diluted with the blocking buffer in a 1:3 serial gradient, added at 50 μL/well, incubated at 37° C. for 40-50 min, and then washed with 0.5×PBST. Goat anti-mouse IgG-HRP (Southern Biotech, 1030-05) was diluted at 1:20000 with the blocking buffer, added at 50 μL/well, incubated in the dark for 30 min, and then washed with 0.5×PBST. Prior to assay, 50 μL of luminol buffer A+B was added to each well in a 1:1 mix.
(§2) Antibody stability test: the purified antibody at 5 mg/mL was stored at 4° C. as regular practice, incubated at 40° C. for 7 days and 14 days for heat stability evaluation, transferred to a glycine solution at pH 3.5 for regeneration, and stored for 2, 4 and 6 h for acid stability evaluation, or subjected to repeated freeze-thaw treatments for 4 or 6 cycles for freeze-thaw stability evaluation. Aggregation was measured by SEC-HPLC, and binding affinity was determined by ELISA.
Three clones of hu3F8 were freeze-thawed for 3 or 5 cycles, and then subjected to ELISA to measure the binding affinities. The chimeric antibody was subjected to parallel assay.

The target of series [2] is T1, HER3. The experiment in a line: ELISA binding affinity after incubation at pH 3.5 (acid stress). The method, then:
as §1, §2
Three clones of hu3F8 were incubated at pH 3.5 for 0, 2, 4 and 6 h, and then subjected to ELISA to measure the binding affinities.
EC50 assay of the three clones of hu3F8 after 0, 2, 4, and 6 h of incubation at pH 3.5. EC50 was determined by ELISA.

Series [3] is described as follows: Aggregation by SEC-HPLC after stress test. It counts as physicochemical. The method, then: as §2
Aggregations of 3 clones of hu3F8 after stability test and their aggregation evaluations on storage at 4° C. Aggregations of the three hu3F8 antibodies after acid treatment, repeated freeze-thaw and incubation at 40° C. were determined by SEC-HPLC and compared to each of the antibodies stored at 4° C. All the clones retained more than 95% of monomer after stress test, indicating little tendency to aggregate.
In general terms: SEC sorts molecules by how far they enter the pores of the column.

Series [4] deals with T1, HER3. The experiment in a line: ELISA binding affinity after incubation at 40° C. (heat stress). The method, then:
as §1, §2
The three clones of hu3F8 were incubated at 40° C. for different times and then subjected to ELISA to determine the binding affinities. The chimeric antibody was subjected to parallel assay.
EC50 assay of the three clones of hu3F8 incubated at 40° C. for different times. The three humanized 3F8 antibody clones were incubated in normal saline at 40° C. for 7 or 14 days, and the binding affinities after heat stress test were determined by ELISA. The chimeric antibody 3F8 was subjected to parallel assay.
In general terms: In an ELISA, binding on a coated surface is turned into a signal by an enzyme label.

For series [5], the target named is T2, His-HER3 (Homo sapiens, UniProt P21860).
T2 construct: His
The experiment in a line: Binding kinetics by Biacore (SPR). Particulars: antibody as ligand, analyte His-HER3, Biacore T200. The method, then:
Affinity assay by surface plasmon resonance (SPR): antibody kinetics and affinity were determined using Biacore T200. Briefly, the recombinant human HER3 antibody was immobilized on a protein A chip (GE, Cat. 29-1275-5). The antigen concentration, from 50 nM to a final concentration of 0.78125 nM, was generated by 2-fold serial dilution, and affinity and kinetics were determined through the chip.
The binding affinity of humanized 3F8 (hu3F8) and chimeric 3F8. Binding kinetics of 3 humanized 3F8 clones and chimeric 3F8 were determined by Biacore. Three humanized 3F8 clones (clone 1, clone 2 and clone 3) had different heavy chains and one identical light chain. Clone 1, clone 2, and clone 3 corresponded to hu3F8-1, hu3F8-2, and hu3F8-3, respectively.
All data listed in Table 6 were processed using Biacore T200 evaluation software version 3.1.
On the technique in general: In SPR one partner is held on a chip, and binding of the other changes the refractive index at the surface.

Series [6] relates to MDA-MB-453 cells. The experiment in a line: Internalization of antibody-drug conjugates with pHrodo in MDA-MB-453 cells. It counts as cell-based. Particulars: 10 nM. As for the experimental part:
The up-taken of the antibody-drug conjugate of the present application against the HER3 target on MDA-MB-453 cells expressing HER3 was detected. The cell, the antibody-drug conjugate (ADC) with a fixed concentration, and an internalization indicating reagent pHrodo were co-incubated, and the endocytosis capacity of the antibody-drug conjugate was evaluated by observing the number of fluorescent signal bright dots generated by pHrodo which entered the cell along with the antibody-drug conjugate in the cell at different time points.
• 1. Cell culture: MDA-MB-453 cells were cultured using a 10% FBS Leibovitz's L-15 medium. • 2. Cell preparation: MDA-MB-453 cells in logarithmic phase were taken, washed with PBS once, and digested with 2-3 mL of Versene for 2-3 min. After the cells were digested completely, 10-15 mL of cell culture was added to elute the digested cells. The eluate was centrifuged at 1000 rpm for 5 min, and the supernatant was discarded. The resulting cells were resuspended in cell culture to give a single cell suspension, which was adjusted to a viable cell density of […] cells/mL. • 3. Cell plating: the cell suspension was added to a 96-well cell culture plate at 50 μL/well. The culture plate was incubated in an incubator for 18 h (37° C., 5% CO2). • 4. Sample adding: the test antibody-drug conjugate was co-incubated with Fab-pHrodo to form a complex, adjusted to a concentration of 10 nM, and added to the cells at 50 μL/well. • 5. Culturing of cells: the culture plate was incubated in an incubator for 2, 4, 6, 24, or 48 h (37° C., 5% CO2). • 6. Plate reading: when the corresponding time point was reached, the 96-well cell culture plate was taken out, Hoechst33342 was added to perform cell nucleus staining, the plate was placed in operatta CLS for photographing, and the number of cells and the number of fluorescent bright dots in each cell were read. The average number of cell fluorescent dots was calculated using Harmony® imaging and analysis software.

Where [7] appears, read: Antibody stored at 4° C., SEC-HPLC.

B1: Clone 1: humanized 3F8; heavy chain SEQ ID NO: 11, light chain SEQ ID NO: 12 (antibody)
heavy: QVQLQESGPGLVKPSETLSLTCTVSGYSITSAYYWNWIRQPPGKGLEWIGYISYDGRNNFNPSLKNRVTISVDTSKNQFSLKLSSVTAADTAVYYCARDGDYDYFDYWGQGTTVTVSS[human IgG1 constant region left out]
light: DIQMTQSPSSLSASVGDRVTITCRASQDISNYLNWYQQKPGKAPKLLIYYTSILHSGVPSRFSGSGSGTDYTFTISSLQPEDIATYFCQQGDTLPPTFGGGTKLEIKRTVAAPSVFIFPPSDEQLKSGTASVVCLLNNFYPREAKVQWKVDNALQSGNSQESVTEQDSKDSTYSLSSTLTLSKADYEKHKVYACEVTHQGLSSPVTKSFNRGEC
As for B1, the “EC50 after freeze-thaw stress” value was found to be 0.04541 mg/L in series [1] (0 freeze-thaw cycles), 0.04429 mg/L in series [1] (3 freeze-thaw cycles) and 0.03858 mg/L in series [1] (5 freeze-thaw cycles). Moreover, the “EC50 after incubation at pH 3.5” value in series [2] (incubation time 0 hr) is recorded as 38.74 ng/mL; in series [2] (incubation time 2 hr), 38.11 ng/mL; in series [2] (incubation time 4 hr), 40.89 ng/mL; in series [2] (incubation time 6 hr) it was 38.96 ng/mL. The Dimer in series [3] (setting [7]) was found to be 4.36%; in series [3] (Day 7 at 40° C.) it was 4.22%; in series [3] (Day 14 at 40° C.), 4.22%; in series [3] (Freeze-thaw for 3 cycles), 4.41%; in series [3] (Freeze-thaw for 5 cycles) it was 4.43%; in series [3] (pH 3.5 for 2 h), 4.41%. The Dimer worked out at 4.22% in series [3] (pH 3.5 for 4 h) and 4.29% in series [3] (pH 3.5 for 6 h). For the same molecule, the Monomer in series [3] (setting [7]) was 94.68%; in series [3] (Day 7 at 40° C.), 95.02%; in series [3] (Day 14 at 40° C.), 95.03%; in series [3] (Freeze-thaw for 3 cycles), 94.63%; in series [3] (Freeze-thaw for 5 cycles), 94.69%; in series [3] (pH 3.5 for 2 h), 94.63%. For the same molecule, the Monomer in series [3] (pH 3.5 for 4 h) is on record as 95.06%; in series [3] (pH 3.5 for 6 h) it was 94.80%. In addition, the Tetramer in series [3] (setting [7]) was found to be 0.96%; in series [3] (Day 7 at 40° C.) it was 0.76%; in series [3] (Day 14 at 40° C.) it was 0.75%; in series [3] (Freeze-thaw for 3 cycles), 0.96%; in series [3] (Freeze-thaw for 5 cycles), 0.88%; in series [3] (pH 3.5 for 2 h), 0.96%. In addition, the Tetramer in series [3] (pH 3.5 for 4 h) was 0.73%; in series [3] (pH 3.5 for 6 h) it was 0.91%. Further, the results for the “EC50 after incubation at 40° C.” value in series [4] (day 0), in series [4] (day 7) and in series [4] (day 14) were 0.03916 mg/L, 0.04235 mg/L and 0.041 mg/L, respectively. For the same molecule, in series [5], the “ka” value amounted to 560000 M⁻¹ s⁻¹. Also, in series [5], the “kd” value came out at 0.000612 s⁻¹.

B2: Clone 2: humanized 3F8; heavy chain SEQ ID NO: 13, light chain SEQ ID NO: 12 (antibody)
heavy: B1 heavy with P42F, I49M, V72R
light: B1 light
As for B2, the “EC50 after freeze-thaw stress” value amounted to 0.04246 mg/L in series [1] (0 freeze-thaw cycles), 0.04666 mg/L in series [1] (3 freeze-thaw cycles) and 0.04379 mg/L in series [1] (5 freeze-thaw cycles). The “EC50 after incubation at pH 3.5” value in series [2] (incubation time 0 hr) is on record as 45.04 ng/mL; in series [2] (incubation time 2 hr), 48.31 ng/mL; in series [2] (incubation time 4 hr), 44.54 ng/mL; in series [2] (incubation time 6 hr), 41.18 ng/mL. Moreover, the Dimer in series [3] (setting [7]) worked out at 3.16%; in series [3] (Day 7 at 40° C.) it was 3.03%; in series [3] (Day 14 at 40° C.), 3.39%; in series [3] (Freeze-thaw for 3 cycles) it was 3.22%; in series [3] (Freeze-thaw for 5 cycles), 3.44%; in series [3] (pH 3.5 for 2 h) it was 2.99%. The Dimer in series [3] (pH 3.5 for 4 h) and in series [3] (pH 3.5 for 6 h) was 3.27% in each case. The Monomer in series [3] (setting [7]) is listed as 96.67%; in series [3] (Day 7 at 40° C.) it was 96.94%; in series [3] (Day 14 at 40° C.) it was 96.44%; in series [3] (Freeze-thaw for 3 cycles), 96.65%; in series [3] (Freeze-thaw for 5 cycles), 96.31%; in series [3] (pH 3.5 for 2 h), 96.98%. Besides, the Monomer is on record as 96.52% in series [3] (pH 3.5 for 4 h) and 96.57% in series [3] (pH 3.5 for 6 h). For the same molecule, the Tetramer in series [3] (setting [7]) was found to be 0.17%; in series [3] (Day 7 at 40° C.) it was 0.03%; in series [3] (Day 14 at 40° C.), 0.17%; in series [3] (Freeze-thaw for 3 cycles), 0.13%; in series [3] (Freeze-thaw for 5 cycles), 0.25%; in series [3] (pH 3.5 for 2 h) it was 0.04%. Further, the figures for the Tetramer in series [3] (pH 3.5 for 4 h) and in series [3] (pH 3.5 for 6 h) were 0.22% and 0.16%, respectively. For the same molecule, the “EC50 after incubation at 40° C.” value in series [4] (day 0) was 0.0454 mg/L; in series [4] (day 7), 0.04809 mg/L; in series [4] (day 14), 0.05203 mg/L. Further, the “ka” value in series [5] was 666000 M⁻¹ s⁻¹. Besides, the “kd” value in series [5] worked out at 0.000328 s⁻¹.

B3: ADC-2-X2: anti-Her3 antibody hu3F8-3 conjugated with linker-payload X2, DAR 7.11 (conjugate)
heavy: B1 heavy with P42F, I49M, T69S, V72R, V93T
light: B1 light
In the case of B3, the “Average number of fluorescence dots in cells” value in series [6] (assay time 2 h) turned out to be 1.4; in series [6] (assay time 4 h), 2.1; in series [6] (assay time 6 h) it was 2.6; in series [6] (assay time 24 h), 2.6; in series [6] (assay time 48 h) it was 3.9.

B4: ADC-2-X1: anti-Her3 antibody hu3F8-3 conjugated with linker-payload X1, DAR 7.01 (conjugate)
heavy: B1 heavy with P42F, I49M, T69S, V72R, V93T
light: B1 light
For the molecule B4, the “Average number of fluorescence dots in cells” value in series [6] (assay time 2 h) turned out to be 1.4; in series [6] (assay time 4 h), 2.1; in series [6] (assay time 6 h) it was 2.5; in series [6] (assay time 24 h), 3.3; in series [6] (assay time 48 h), 3.5.

The record behind these values is US20250295802A1, “HER3 ANTIBODY-DRUG CONJUGATE AND USE THEREOF” (DUALITY BIOLOGICS (SUZHOU) CO., LTD., priority 2022, published 2025).
